# Measurements as given in PubChem BioAssay AID434955 (Southern Research Specialized Biocontainment Screening …, 2010).
# The list shows a part of the results. These are further read-outs of the screen, such as a control signal, another cell line or another target. No call is given for them. Most of these compounds were active or inconclusive in the main read-out, so they are no random draw.
# Assay: beta-lactam sensitization of Mtb H37Rv, H37Rv (AID 434955);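 also: growth measured after seven days incubation then overnight dye step; 0% = bacteria only wells and 100% = bacteria with antibiotic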
# Details: M. tuberculosis H37Rv growth with meropenem, percent inhibition; measured here: primary screen without meropenem; at 25 µM
row,SMILES,inhibition
1,COc1cc(Cl)ccc1OCc1cc(C(=O)NC2CCc3ccccc32)no1 (configuration not stated),3.44%
2,C#CCn1cnc2c(oc3ccccc32)c1=O,2.24%
3,CC(=O)Nc1ccc(S(=O)(=O)Oc2ccccc2N2C(=O)C3C4CCC(C4)C3C2=O)cc1 (configuration not stated),-3.78%
4,COc1ccccc1N1CCN(C(=O)c2oc3c(c2C)C(=O)CC(C)(C)C3)CC1,2.08%
5,Cc1ccccc1CCN1CCCC(CN(C)C(=O)C(=O)c2ccco2)C1 (configuration not stated),-13.1%
6,CCCc1ccc2oc(C(=O)N3CCNC(=O)C3CC(=O)OC)c(C)c2c1 (configuration not stated),4.87%
7,CCN(CC)CCN(C(=O)c1ccc(S(=O)(=O)N(C)C2CCCCC2)cc1)c1nc2ccc(OC)cc2s1,-5.69%
8,CCCCCc1nnc(NC(=O)C2COc3ccccc3O2)s1 (configuration not stated),20.3%
9,O=c1cc(CSc2nnc(-c3ccccc3)o2)c2ccccc2[nH]1,-7.03%
10,Cc1cccc(C2CC(c3ccc(Cl)cc3)Nc3nc(N)nn32)c1 (configuration not stated),-7.92%
11,Cc1ccn2cc(CNS(=O)(=O)c3ccc4ccccc4c3)nc2c1,-6.41%
12,O=C(Nc1nnc(-c2ccncc2)o1)c1ccc2ccccc2c1,94.7%
13,O=C(N/N=C/c1ccc(O)cc1O)NC12CC3CC(CC(C3)C1)C2,4.03%
14,CCC(c1nnnn1C(C)(C)C)N(Cc1ccco1)Cc1cc2cccc(C)c2[nH]c1=O (configuration not stated),3.13%
15,COc1ccc(OCc2cc(C(=O)N(C)CC3CCCCO3)no2)c(Cl)c1 (configuration not stated),7.34%
16,Cc1cc(C)c(NC(=O)CC(C)(C)C)c(Cl)c1,6.12%
17,CC(C)(C)NS(=O)(=O)c1ccc(NC(=S)NC(=O)C2CCC2)cc1,3.05%
18,COc1ccc(-n2ncc3c(NCc4ccc5c(c4)OCO5)ncnc32)cc1,-4.68%
19,CCOC(=O)c1sc(NC(=O)CN2CCN(c3ccc(OC)cc3)CC2)nc1C,50.8%
20,Cc1ccc(NC(=O)CSc2n[nH]c(-c3ccco3)n2)cc1,44.5%
21,Cc1ccc(S(=O)(=O)N2CCN(Cc3nc4sc5c(c4c(=O)[nH]3)CCCC5)CC2)cc1,1.29%
22,CC(=O)c1ccccc1C(=O)N1CCCC(CCC(=O)N2CCN(c3ccccn3)CC2)C1 (configuration not stated),-0.82%
23,Cn1cc(C(=O)N/N=C/C(Br)=C\c2ccccc2)ccc1=O,-5.39%

row,SMILES,inhibition
1,O=C(Nc1ccccc1NC(=O)c1ccco1)c1ccco1,-3.78%
2,COc1ccccc1N1CCN(C2CCCN(C(=O)c3oc(C)cc3C)C2)CC1 (configuration not stated),-1.62%
3,Cn1c(=O)[nH]c(=O)c2c1nc(Br)n2CCC(=O)c1ccccc1,13.9%
4,Clc1ccc(-n2c(SC/C=C/c3ccccc3)nnc2-c2cccnc2)cc1,19.2%
5,COC(=O)N1C(=O)[C@@](Cc2ccccc2)(c2ccccc2)N1C(=O)OC,-8.02%
6,O=c1c2ccccc2nnn1CSc1nc2cc(Cl)ccc2c(=O)n1Cc1ccco1,6.6%
7,O=C(NCCOc1ccc(F)cc1)C1CCN(S(=O)(=O)c2ccccc2)CC1,-1.57%
8,CC(=O)C1C(c2ccc3ncccc3c2)NC(=O)NC1(O)C(F)(F)F (configuration not stated),-7.01%
9,O=C(Nc1nc2cc3c(cc2s1)OCO3)C1CCCCC1,1.21%
10,C[C@@H](NC(=O)c1[nH]cnc1C(=O)Nc1cccc(Cl)c1)c1ccccc1,65.3%
11,CCOC(=O)c1ccccc1OCc1cc(/C=N/n2cncn2)ccc1OC,6.17%
12,Cc1ccc(CN(C)C(=O)c2cc(COc3cccc(C(F)(F)F)c3)on2)o1,19.7%
13,CCS(=O)(=O)N1CCCC(c2nc(-c3cccc(OC)c3)no2)C1 (configuration not stated),3.5%
14,COc1cc(NC(=O)c2cccs2)ccc1NC(=O)Cc1ccccc1,-0.81%
15,CSc1ccccc1NC(=O)CN(c1cccc(C)c1)S(C)(=O)=O,1.75%
16,O=C(CCN1C(=O)c2ccccc2C1=O)Nc1ccc(-c2cn3ccsc3n2)cc1,-4.64%
17,Cn1c(SCC(=O)Nc2ccccc2F)nnc1-c1cccnc1,0.43%
18,O=C(OCC(=O)N1CCc2ccccc21)c1ccc(Cl)nc1,27.3%
19,CC1(C)CC(=O)C(C=NCCCn2ccnc2)=C(O)C1,-8.44%
20,C/C(=N\NC(=O)c1ccccc1)C1C2C=CC(C2)C1(C)C (configuration not stated),3.15%
21,O=C(NCc1ccco1)c1cc(-c2cccs2)on1,0.15%
22,Cc1cccc(NC(=O)Cn2c(=O)oc3ccccc32)n1,-11.5%
23,COc1ccc2c(c1)c(C(C)=O)c(C)n2-c1ccccc1,-9.85%

row,SMILES,inhibition
1,CCC(C)NC(=O)C1CCN(S(=O)(=O)c2cccs2)CC1 (configuration not stated),5.86%
2,COc1ccc(CN2CCC(n3nccc3NC(=O)c3cccc(F)c3)CC2)cc1O,5.47%
3,COc1ccc(OC)c(NC(=O)c2cccc(N3C(=O)C4C5CCC(C5)C4C3=O)c2)c1 (configuration not stated),18.1%
4,CC(C)(C)c1ccc(C(=O)NCc2nnc(SCC(=O)NCC3CCCO3)o2)cc1 (configuration not stated),-3.17%
5,CN(CC1CCCO1)S(=O)(=O)c1ccc(C(=O)Nc2nnc(-c3ccccc3)o2)cc1 (configuration not stated),93.5%
6,CCC(CC)c1nnc(NC(=O)c2ccc(N3CCCCC3)c([N+](=O)[O-])c2)s1,41.8%
7,CCN(CC)C(=O)c1ccc(NC(=O)c2cccc(S(=O)(=O)N3CCN(C)CC3)c2)cc1,1.34%
8,c1ccc2c(c1)OCC(c1nn3c(Cn4nnc5ccccc54)nnc3s1)O2 (configuration not stated),1.34%
9,Cc1c(C(=O)OC/C(O)=C(\C#N)c2nc3ccccc3[nH]2)oc2ccc(Br)cc12,11.9%
10,Cc1ccc(NC(NC(=O)c2ccccc2[N+](=O)[O-])C(Cl)(Cl)Cl)cc1 (configuration not stated),-0.81%
11,CCOC(=O)N/C(N)=N/c1nc2ccccc2s1,-3.05%
12,Cc1cccc(C)c1OCc1cc(C(=O)NC2CCC(O)CC2)no1 (configuration not stated),5.33%
13,Cc1ccc(NC(=O)CSc2nc3c(c(=O)[nH]2)CCC3)cc1C,3.75%
14,CC(C)(C)N1Cc2ccccc2C1=N,1.47%
15,O=C(/C=C/c1cccs1)Nc1ccc(N2CCOCC2)c(S(=O)(=O)Nc2cc(Cl)ccc2Cl)c1,-6.56%
16,O=c1c(Cl)c(Nc2cccc(Cl)c2)cnn1-c1nc2ccccc2s1,-3.66%
17,COc1ccc(CC(=O)OCC(=O)Nc2ncc(Cl)cc2Cl)cc1OC,3.51%
18,COc1cc(C(=O)NNC(=O)c2cc(-c3ccccc3)n[nH]2)cc(OC)c1C,19.2%
19,Cc1ccc(F)cc1CNC(=O)C1CCC(=O)N(CCCN2CCCC2=O)C1 (configuration not stated),-5.34%
20,COc1ccccc1CNC(=O)c1cc2c(C)nn(Cc3ccc(F)cc3)c2s1,-1.67%
21,Cc1cccc2[nH]c(CN(C)C(=O)C3CCC(=O)N(CCc4ccccc4)C3)nc12 (configuration not stated),-4.65%
